Measurements published in publication doi:10.1101/660837 (bioRxiv, 2019).

Target: Gαs (human, short splice variant) (human, UniProt P63092-2 1-380)
Experiment: cryo-EM structure

B1: Human GCGR ([…]) with N-terminal FLAG and C-terminal octahistidine tag (receptor)
chain: not shown
B1: binds.
